# Laboratory results taken from the supplement of paper PMC3334620.
# Over roughly 33,000 sequences, “E-score (-0.5 to 0.5)” has its median near -0.013; the highest 2% begin near 0.3. Some of the results follow.
# Target: T1, Msn1 (UniProt P22148)
# T1 sequence: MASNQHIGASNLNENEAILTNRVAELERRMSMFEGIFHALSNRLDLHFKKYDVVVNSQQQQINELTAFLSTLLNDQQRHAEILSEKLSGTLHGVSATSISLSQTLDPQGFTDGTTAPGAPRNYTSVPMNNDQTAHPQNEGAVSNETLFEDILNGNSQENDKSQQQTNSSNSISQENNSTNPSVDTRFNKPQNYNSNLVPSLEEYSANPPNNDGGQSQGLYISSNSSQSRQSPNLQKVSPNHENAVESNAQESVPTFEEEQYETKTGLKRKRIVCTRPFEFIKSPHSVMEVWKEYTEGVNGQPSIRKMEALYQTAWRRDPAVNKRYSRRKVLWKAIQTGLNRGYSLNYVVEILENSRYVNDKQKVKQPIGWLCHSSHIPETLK
# Experiment: PBM E-score (8-mer binding enrichment) (E-score (-0.5 to 0.5)); higher = stronger / more preferred TF binding; most listed sequences are background and not binding sites
# Settings: protein concentration: 200 nM; construct: GST-full length
# Method in brief: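 The E-score, a modified Wilcoxon-Mann-Whitney statistic, was computed by the Universal PBM Analysis Suite for every ungapped eight-base word pooled with its reverse complement. Scans behind it were normalised with masliner after bound GST-tagged yeast transcription factors were detected with fluorescent anti-GST. The proteins, at about 100-200 nM, had been applied to universal all-10-mer Agilent arrays made double-stranded by primer extension.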
row,Sequence,PBM E-score
1,AGCACCAC,-0.295
2,AATACCGT,0.0665
3,CTCTGACA,0.205
4,GCCGTGCC,-0.152
5,TCAGTACA,0.319
6,CCCGGACC,-0.11
7,CCGCGGAA,0.0712
8,CACCGTGC,-0.0464
9,CCACGTTA,0.116
10,ATAGGACA,0.457
11,AAATGGGG,-0.211
12,ACTATCCA,0.0113
13,CTAGAGTA,-0.0714
14,AATTCGTC,0.185
15,ATCAATAG,0.038
16,CTCCCTCA,-0.223
17,AACCCTTC,-0.16
18,ATGGACCA,0.114
19,GTGTGTTA,-0.00116
20,ATCCGTGC,0.0735
21,AATCTAAT,0.0536
22,CGGCGGAA,-0.022
23,CGCGCAAC,-0.121
24,GCACTGAC,0.0945
25,CATAGGAA,-0.187

row,Sequence,PBM E-score
1,TATTTGGA,-0.0819
2,GGCTATGA,-0.0731
3,GAGGACCA,-0.184
4,CCACGAGA,-0.0481
5,AGTCCTCC,-0.101
6,CCCAGACA,0.199
7,ACACCAGT,-0.238
8,AGAACCCA,-0.128
9,CCCGATGC,-0.0486
10,GCCCTGGA,-0.205
11,ACACAAAC,0.0132
12,ATAAGGGA,-0.00215
13,ATCGGAGC,0.0147
14,AACGTAAT,0.157
15,AGGCTCGC,0.0181
16,CGAAGGAA,-0.0371
17,CCAGCCGC,-0.183
18,CCATTGAC,-0.112
19,AGATTAAA,0.309
20,ATTCTAAA,0.223
21,TCCGTTCA,-0.0111
22,AGAGTACG,-0.237
23,ATGTTAAT,0.111
24,GAGGGACA,0.447
25,CATGCTCG,-0.127

row,Sequence,PBM E-score
1,ATGGGACG,-0.188
2,CAAAGGGC,-0.0864
3,AAATGGCA,0.123
4,GTAGTATA,0.0405
5,AAGGCTTA,-0.00958
6,ACCGCATG,0.104
7,AGGCGCCG,0.076
8,AGTGTTAC,0.0186
9,ACGCTTGA,0.121
10,CTTTTAAA,0.0756
11,CCGCAGCA,-0.0553
12,ATTACCTG,-0.0939
13,AAGGCCGT,0.0285
14,ACGCCACC,-0.281
15,ATAATTTG,0.255
16,AAACAACA,0.125
17,CGATTATC,-0.109
18,TCTGAAGA,-0.0561
19,TCTCTGCA,-0.0804
20,AAGTTGTA,0.077
21,CCACATCG,-0.00737
22,CGGGGATA,-0.125
23,AAGGGTCG,-0.127
24,AGGCATTA,-0.199
25,CATCGACG,0.0449

row,Sequence,PBM E-score
1,GGCTGTAA,-0.0964
2,GTAGTGAC,0.143
3,CGCATCCA,-0.135
4,GCTCGATA,-0.00424
5,AGATCTCA,-0.0747
6,CGGGGTCC,-0.137
7,GAGAACGA,-0.0692
8,GCCGTTGA,0.011
9,GTTGTACA,0.249
10,GGCCATGA,-0.107
11,GCTTATGA,-0.0236
12,AGGTGTTA,-0.135
13,AGACATCA,0.2
14,ACTGTCAC,0.00673
15,CAGGGTTA,-0.13
16,CGACGTCC,0.0745
17,ATAGCTAC,-0.035
18,CCCGTTAA,-0.224
19,ACAATAAA,0.171
20,ACGACGCT,-0.134
21,GCTCGAGA,0.0552
22,AACATTGG,-0.147
23,GGTTTTTA,-0.0256
24,AGTTGGGC,-0.00283
25,GACCGAAA,0.181

row,Sequence,PBM E-score
1,CCGCGGGA,0.158
2,ACCGTAAG,0.0553
3,ACTAACTA,0.0816
4,ATGGGCTA,-0.00909
5,CCGGAGGA,-0.123
6,AAGTCTCG,0.0533
7,CAAAAGTA,0.254
8,TCTTTTAA,0.154
9,CTCTCCAA,-0.133
10,CCGTTGAG,-0.128
11,ATGGCACA,0.0112
12,CTATGGCA,-0.167
13,TCATGCCA,-0.0181
14,CAGCCCTC,-0.302
15,AGGCGGTG,-0.217
16,ACTAGCCG,-0.0777
17,CCTCTGCA,-0.174
18,CCAACCAA,-0.0724
19,ACACGGCC,-0.00717
20,CCTACGAC,0.171
21,CGCTGAGC,0.0366
22,TCGTAAAA,0.151
23,AGTAATAT,0.239
24,CTCAGACC,-0.138
25,GTGAGGTA,-0.141

row,Sequence,PBM E-score
1,CAGCCACC,-0.244
2,CAGGGCTC,-0.317
3,CACAAAAG,0.194
4,CGAGAAAA,0.188
5,CTAATCGC,0.00241
6,AAGAAGCA,0.00717
7,GCGCTACC,-0.0972
8,TTATCAAA,0.19
9,AAGACGCT,0.0551
10,TATGAACA,0.0611
11,GCGAGGCA,0.09
12,AAATGGAA,0.131
13,ATTTAATA,0.336
14,CCGCAAGG,-0.0816
15,ATTGCGGA,0.145
16,GAGTCCAC,-0.156
17,CTAACGCA,-0.121
18,CGTAGCGA,-0.159
19,ACTCGAAT,-0.0552
20,TCAGCGAA,-0.0611
21,CAGCTTCA,0.0811
22,AAACACGA,0.0528
23,ATTCTCCG,0.131
24,AGATTATA,-0.0345
25,CACACGAG,-0.0178

row,Sequence,PBM E-score
1,ATTTTGTA,0.209
2,GGTGGGTA,-0.205
3,CGCGACCA,0.127
4,CACGATTA,0.145
5,ATCCTTCG,0.0168
6,AAAACTGA,0.17
7,GATGGCAC,-0.335
8,AGTCTGAC,-0.0486
9,TCACTGAA,0.112
10,AAAACTCG,0.259
11,CATCTCTC,-0.0153
12,ACTCAAAA,0.102
13,CACCTCGA,0.134
14,AGTCGTTC,-0.114
15,AGATGGAT,-0.162
16,ATTAGAGG,-0.174
17,ATTCTTAC,0.0603
18,CCCAGGTC,-0.342
19,CCTGCGCC,-0.123
20,ATATAGAC,0.194
21,CACCGTAA,0.0343
22,CCCCAGAC,-0.163
